Measurements reported in the supplement of paper PMC8728848.
The list shows a part of the results.

What was measured:
Test in all cases: glycan array binding signal (z-score within array); higher = stronger binding
Conditions in all cases: glycan notation: IUPAC condensed, linker removed
[1] = target: Gal(a1-3)Gal(b1-4)GlcNAc(b1-2)Man
Summary of the method: (§1)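 Negative Z-scores can be read as non-binding. The Z-score is calculated within each array and then averaged across arrays of one protein sequence at different concentrations or buffers and across linkers. Arrays, 3228 in all, were curated from the Consortium for Functional Glycomics database and kept only where the protein sequence was available.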

[2] = target: Gal(a1-3)Gal(b1-4)GlcNAc(b1-2)Man(a1-3)[Gal(a1-3)Gal(b1-4)GlcNAc(b1-2)Man(a1-6)]Man(b1-4)GlcNAc(b1-4)GlcNAc
Summary of the method: as §1

[3] = target: Gal(a1-3)Gal(b1-4)GlcNAc(b1-3)GalNAc
Summary of the method: as §1

[4] = target: Gal(a1-3)Gal(b1-4)GlcNAc(b1-6)GalNAc
Summary of the method: as §1

[5] = target: Gal(a1-3)Gal(b1-4)[Fuc(a1-3)]GlcNAc
Summary of the method: as §1

[6] = target: Gal(a1-3)Gal(b1-4)[Fuc(a1-3)]GlcNAc(b1-2)Man(a1-3)[Gal(a1-3)Gal(b1-4)[Fuc(a1-3)]GlcNAc(b1-2)Man(a1-6)]Man(b1-4)GlcNAc(b1-4)GlcNAc
Summary of the method: as §1

Gal(a1-3)GalNAc = target: Gal(a1-3)GalNAc
Summary of the method: as §1

[7] = target: Gal(a1-3)[Gal(a1-4)]Gal(b1-4)GlcNAc
Summary of the method: as §1

[8] = target: Gal(a1-4)Gal(b1-3)GlcNAc(b1-2)Man(a1-3)[Gal(a1-4)Gal(b1-3)GlcNAc(b1-2)Man(a1-6)]Man(b1-4)GlcNAc(b1-4)GlcNAc
Summary of the method: as §1

Gal(a1-4)Gal(b1-4)Glc = target: Gal(a1-4)Gal(b1-4)Glc
Summary of the method: as §1

Gal(a1-4)Gal(b1-4)GlcNAc = target: Gal(a1-4)Gal(b1-4)GlcNAc
Summary of the method: as §1

[9] = target: Gal(a1-4)Gal(b1-4)GlcNAc(b1-2)Man(a1-3)[Gal(a1-4)Gal(b1-4)GlcNAc(b1-2)Man(a1-6)]Man(b1-4)GlcNAc(b1-4)GlcNAc
Summary of the method: as §1

[10] = target: Gal(a1-4)Gal(b1-4)GlcNAc(b1-3)Gal(b1-4)Glc
Summary of the method: as §1

Gal(a1-4)GlcNAc = target: Gal(a1-4)GlcNAc
Summary of the method: as §1

Gal(a1-6)Glc = target: Gal(a1-6)Glc
Summary of the method: as §1

Gal(b1-2)Gal = target: Gal(b1-2)Gal
Summary of the method: as §1

Gal(b1-3)Gal = target: Gal(b1-3)Gal
Summary of the method: as §1

Gal(b1-3)Gal(b1-4)GlcNAc = target: Gal(b1-3)Gal(b1-4)GlcNAc
Summary of the method: as §1

Gal(b1-3)GalNAc = target: Gal(b1-3)GalNAc
Summary of the method: as §1

[11] = target: Gal(b1-3)GalNAc(a1-3)[Fuc(a1-2)]Gal(b1-4)Glc
Summary of the method: as §1

[12] = target: Gal(b1-3)GalNAc(a1-3)[Fuc(a1-2)]Gal(b1-4)GlcNAc
Summary of the method: as §1

Gal(b1-3)GalNAc(b1-3)Gal = target: Gal(b1-3)GalNAc(b1-3)Gal
Summary of the method: as §1

[13] = target: Gal(b1-3)GalNAc(b1-3)Gal(a1-4)Gal(b1-4)Glc
Summary of the method: as §1

[14] = target: Gal(b1-3)GalNAc(b1-4)Gal(b1-4)Glc
Summary of the method: as §1

[15] = target: Gal(b1-3)GalNAc(b1-4)[Neu5Ac(a2-3)]Gal(b1-4)Glc
Summary of the method: as §1

Gal(b1-3)GlcNAc = target: Gal(b1-3)GlcNAc
Summary of the method: as §1

[16] = target: Gal(b1-3)GlcNAc(a1-3)Gal(b1-4)GlcNAc
Summary of the method: as §1

[17] = target: Gal(b1-3)GlcNAc(a1-6)Gal(b1-4)GlcNAc
Summary of the method: as §1

Gal(b1-3)GlcNAc(b1-2)Man = target: Gal(b1-3)GlcNAc(b1-2)Man
Summary of the method: as §1

[18] = target: Gal(b1-3)GlcNAc(b1-2)Man(a1-3)[Gal(b1-3)GlcNAc(b1-2)Man(a1-6)]Man(b1-4)GlcNAc(b1-4)GlcNAc
Summary of the method: as §1

[19] = target: Gal(b1-3)GlcNAc(b1-2)Man(a1-3)[Gal(b1-3)GlcNAc(b1-2)Man(a1-6)]Man(b1-4)GlcNAc(b1-4)[Fuc(a1-6)]GlcNAc
Summary of the method: as §1

[20] = target: Gal(b1-3)GlcNAc(b1-2)Man(a1-3)[GlcNAc(b1-4)][Gal(b1-3)GlcNAc(b1-2)Man(a1-6)]Man(b1-4)GlcNAc(b1-4)GlcNAc
Summary of the method: as §1

[21] = target: Gal(b1-3)GlcNAc(b1-2)[Gal(b1-3)GlcNAc(b1-6)]Man(a1-6)[Gal(b1-3)GlcNAc(b1-2)Man(a1-3)]Man(b1-4)GlcNAc(b1-4)GlcNAc
Summary of the method: as §1

[22] = target: Gal(b1-3)GlcNAc(b1-3)Gal(b1-3)GlcNAc
Summary of the method: as §1

[23] = target: Gal(b1-3)GlcNAc(b1-3)Gal(b1-4)Glc
Summary of the method: as §1

[24] = target: Gal(b1-3)GlcNAc(b1-3)Gal(b1-4)GlcNAc
Summary of the method: as §1

[25] = target: Gal(b1-3)GlcNAc(b1-3)Gal(b1-4)GlcNAc(b1-2)Man(a1-3)[Gal(b1-3)GlcNAc(b1-3)Gal(b1-4)GlcNAc(b1-2)Man(a1-6)]Man(b1-4)GlcNAc(b1-4)GlcNAc
Summary of the method: as §1

[26] = target: Gal(b1-3)GlcNAc(b1-3)Gal(b1-4)GlcNAc(b1-2)[Gal(b1-3)GlcNAc(b1-3)Gal(b1-4)GlcNAc(b1-6)]Man(a1-6)[Gal(b1-3)GlcNAc(b1-3)Gal(b1-4)GlcNAc(b1-2)Man(a1-3)]Man(b1-4)GlcNAc(b1-4)[Fuc(a1-6)]GlcNAc
Summary of the method: as §1

[27] = target: Gal(b1-3)GlcNAc(b1-3)Gal(b1-4)GlcNAc(b1-3)Gal(b1-4)GlcNAc(b1-2)[Gal(b1-3)GlcNAc(b1-3)Gal(b1-4)GlcNAc(b1-3)Gal(b1-4)GlcNAc(b1-6)]Man(a1-6)[Gal(b1-3)GlcNAc(b1-3)Gal(b1-4)GlcNAc(b1-3)Gal(b1-4)GlcNAc(b1-2)Man(a1-3)]Man(b1-4)GlcNAc(b1-4)[Fuc(a1-6)]GlcNAc
Summary of the method: as §1

[28] = target: Gal(b1-3)GlcNAc(b1-3)Gal(b1-4)GlcNAc(b1-6)[Gal(b1-3)GlcNAc(b1-3)]Gal(b1-4)Glc
Summary of the method: as §1

[29] = target: Gal(b1-3)GlcNAc(b1-3)Gal(b1-4)[Fuc(a1-3)]GlcNAc
Summary of the method: as §1

[30] = target: Gal(b1-3)GlcNAc(b1-3)Gal(b1-4)[Fuc(a1-3)]GlcNAc(b1-6)[Gal(b1-3)GlcNAc(b1-3)]Gal(b1-4)Glc
Summary of the method: as §1

[31] = target: Gal(b1-3)GlcNAc(b1-3)GalNAc
Summary of the method: as §1

[32] = target: Gal(b1-3)GlcNAc(b1-6)Gal(b1-4)GlcNAc
Summary of the method: as §1

[33] = target: Gal(b1-3)GlcNAc(b1-6)GalNAc
Summary of the method: as §1

B1: FimA-N3 (Actinomyces oris) (protein)
chain: MHHHHHHSSGVDLGTENLYFQSNAGLQGAQFQLYKAKNAYANTCSNEKEGAPIAINGQTTLTTDAQGAIDIKGLFISDSIDGADRDNQVNAMERCYVLVETKAPAGYVLPAGNGAATPVKVKAGEETTDN
[1]
  glycan array binding signal (z-score): -0.007
[2]
  glycan array binding signal (z-score): 1.03
[3]
  glycan array binding signal (z-score): 0.243
[4]
  glycan array binding signal (z-score): -0.335
[5]
  glycan array binding signal (z-score): -0.563
[6]
  glycan array binding signal (z-score): -0.667
Gal(a1-3)GalNAc
  glycan array binding signal (z-score): -0.42
[7]
  glycan array binding signal (z-score): -0.201
[8]
  glycan array binding signal (z-score): -0.264
Gal(a1-4)Gal(b1-4)Glc
  glycan array binding signal (z-score): -0.294
Gal(a1-4)Gal(b1-4)GlcNAc
  glycan array binding signal (z-score): 0.769
[9]
  glycan array binding signal (z-score): -0.557
[10]
  glycan array binding signal (z-score): -0.388
Gal(a1-4)GlcNAc
  glycan array binding signal (z-score): -0.69
Gal(a1-6)Glc
  glycan array binding signal (z-score): -0.713
Gal(b1-2)Gal
  glycan array binding signal (z-score): 0.08
Gal(b1-3)Gal
  glycan array binding signal (z-score): -0.108
Gal(b1-3)Gal(b1-4)GlcNAc
  glycan array binding signal (z-score): 0.999
Gal(b1-3)GalNAc
  glycan array binding signal (z-score): 0.244
[11]
  glycan array binding signal (z-score): -0.081
[12]
  glycan array binding signal (z-score): 0.295
Gal(b1-3)GalNAc(b1-3)Gal
  glycan array binding signal (z-score): -0.367
[13]
  glycan array binding signal (z-score): 0.262
[14]
  glycan array binding signal (z-score): 3.23
[15]
  glycan array binding signal (z-score): -0.192
Gal(b1-3)GlcNAc
  glycan array binding signal (z-score): -0.153
[16]
  glycan array binding signal (z-score): 1.71
[17]
  glycan array binding signal (z-score): -0.34
Gal(b1-3)GlcNAc(b1-2)Man
  glycan array binding signal (z-score): -0.37
[18]
  glycan array binding signal (z-score): -0.683
[19]
  glycan array binding signal (z-score): -0.211
[20]
  glycan array binding signal (z-score): 0.346
[21]
  glycan array binding signal (z-score): -0.158
[22]
  glycan array binding signal (z-score): 0.606
[23]
  glycan array binding signal (z-score): -0.319
[24]
  glycan array binding signal (z-score): -0.594
[25]
  glycan array binding signal (z-score): -0.344
[26]
  glycan array binding signal (z-score): 2.94
[27]
  glycan array binding signal (z-score): 1.66
[28]
  glycan array binding signal (z-score): -0.492
[29]
  glycan array binding signal (z-score): 0.531
[30]
  glycan array binding signal (z-score): -0.583
[31]
  glycan array binding signal (z-score): -0.259
[32]
  glycan array binding signal (z-score): -0.454
[33]
  glycan array binding signal (z-score): -0.391
